Assay results taken from the RNAGym collection of RNA variant scans (doi:10.7554/elife.90254).
The source gives no read counts; variants with many changes may rest on few reads.

B1: LINE1-mini (parent)
chain: GGCAGAGCUCAACACAGCGUGGCAAAGUGGCUGUGGCUAGACUGCC

Variants of: B1
Experiment: self-cleavage, relative activity (ratio to wild type); higher = more cleavage; in vitro, sequencing; the parent is a self-cleaving ribozyme

Variant	self-cleavage
A4U A6U A14G C23U U28C G30U A39U	0.01
A4G A6G G30A G33U G36U	0.23
A4U G22U C42A G44A	0.03
A4G G7U G33U	0.26
A4G U9G G36C	0.16
A4U A14G G29A G33C A41G C42A	0.08
A4U A14G G19U G44U	0.08
A4U C13A A26U	0.07
A4G U9C C10A A16C G27C C42U	0.01
A4G C10U A14U	0.16
A4G A14G A25G	0.75
A4U C10G G17C G19A U20G G35U C42U	0.01
A4G C31A G33U A41C	0.04
A4U A14G G40C	0.03
A4G G7A U34A A39G	0.19
A4U C10A A12C G17A A25G G27A	0.03
A4G A6G C8A C15A	0.4
A4U G5C G40U	0.08
A4U C10A C18A G21U G27A	0.03
A4U C8A A14C G19C G27A	0.06
A4G G7A G30C G33C	0.11
A4G C8A U20A C23G C46A	0.12
A4U G19A G40A C42U U43G	0.14
A4U C23U C46A	0.17

Variant	self-cleavage
A4U G22U G27A C31U	0.17
A4G C10G C13A G17U G27U G29A C31G	0.03
A4U A6C A11C A14U	0.01
A4U C23A U34A	0.06
A4G A16G G29A G36C C42A	2.17
A4U G5U C15A A25C C31U	0.01
A4U C8G G17A G19U A39C U43A G44A	0.01
A4G G19C G29U U34A G35U A39C G40A	0.03
A4U C15G A16C U28C G40C	0.03
A4U G5U U32A	0.03
A4G A24U U43G	0.01
A4G C15A C18G A24U G40A	0.04
A4U G5C U43A	0.06
A4G A26U G33U	0.28
A4U G7U C23A G30U	0.4
A4G C13G C37G	0.16
A4U C37U G40U	0.1
A4U C18G G21U	0.07
A4G C13G A14C A26C U38G C46A	0.04
A4G A16C G33U U34A	0.05
A4U G5U G19U G21A U34A G36A	0.04
A4G C13G G44C	0.01
A4G C15U A26G G35C A41U C46U	0.01
A4U G19U G33U	0.03

Variant	self-cleavage
A4U G17A U20C U28A G30C	0.02
A4U A16U G21A G29A	0.12
A4G G27U C37G C46U	0.01
A4U A12G G19C A39U	0.02
A4U C15G C31U	0.02
A4G A11G G17A C23G	0.02
A4G C8A A24G A41G U43A	0.29
A4G G29U U34G	0.03
A4U A11U A26G	0.03
A4U C13U U38C	0.21
A4U C13U U38G	0.03
A4U A6G C13U G21U A26C	0.34
A4G G5A G30U	0.07
A4G C10G G21C G30C	0.12
A4U G17C C18U G35U A39G	0.04
A4G A6C G21C C31U	0.06
A4G A6G A16U G27U G33A	0.03
A4U C10A C37G	0.01
A4U A6U G7U A26U G44C	0.1
A4G G7C G40U	0.1
A4G A14C C42U	0.11
A4U A14U C23G U28C C42A U43C	0.09
A4U C13A A16C G21U C23A	0.08
A4G G27U A39U A41G	0.07

Variant	self-cleavage
A4U C8A G27U C31A	0.11
A4G C23U G33A G35A U38C	0.07
A4G A11U G21U	0.04
A4G C10U G21A C31G G36A C46A	0.06
A4G C13U A25U C37G G40A	0.06
A4U A14G C15G U28G C42A	0.01
A4U C18G G27C G36U	1.53
A4U C8A A24C A25U G36U A39C	0.11
A4G A6U U34G	0.02
A4U A14U G19A G22U A25U U32G	0.03
A4U A12C A16C G17A G30U G33A	0.04
A4G C10A U20A A26C G40A	0.01
A4G G19C G22U U28G G29C G40U C45U	0.04
A4U G7C U9A C13G A39G	0.12
A4G A26U G30A A41C	0.02
A4U C13U U20G C37U	0.06
A4G C10G C15G	0.01
A4G A16U G35U U38G C45G	0.02
A4U C15A G17C C23U G40U	0.14
A4G A12C A16G G17A G29C	0.01
A4U A11G C31A	0.02
A4U A26G U34C	0.06
A4U A16U G22U G29A	0.1
A4U G5A G19C G21U A26G G27U G29C	0.12

Variant	self-cleavage
A4G A24G G29A	0.47
A4G C18U G19A A41U U43C	0.33
A4U C10A U32C	0.05
A4G G7C U9C A16G U28G G36U C46U	0
A4G G7C G17U A25G G44C	0.02
A4G C10U A14G A16G C18U G35A C45U	0.02
A4G U9A G21U	0.09
A4G G7A C23G G33A	0.07
A4U C18U G19A C23G A26U	0.12
A4U C8U A11C A14G G44C	0.03
A4G G19C C31A	0.07
A4G U34A G44C	0.08
A4U C37U G44A	0.04
A4G G5C G7C G40C	0.3
A4G G7A A11G A12C C18U	0
A4U G17U G29A	0.24
A4U G21A A26U G29U	1.15
A4U C15U C31G	0.06
A4U C37G G44C	0.01
A4G C18G A39U C42U	0.08
A4U C18A G27U	0.05
A4G A6C U9C C10A G40U	0.21
A4U C23U A25C	0.08
A4U G21U G36A	0.14

Variant	self-cleavage
A4U C23A C37A	0.04
A4G A11U A12C C13U G30U	0.02
A4G G21C G27C	0.18
A4U C18U U43A	0.19
A4U G5U G17C G27A	0.01
A4G G5U G19C G30C U38A A39U G44C	0.05
A4G A16U A26C	0.03
A4U G5A G22A C23A	0.06
A4G U9C U43A C45G C46G	0.03
A4G G7U A26U G33U	0.08
A4U C37U C42U	0.01
A4G G7A C15G	0.2
A4U C13G A14G C15A A26U C37G C45G	0.02
A4G G7A C31A C45G	0.17
A4G C8G C31U	0.04
A4G A6G U34C C42A U43A	0.12
A4G G7C C15A C18A U20C U34G U38G A39G A41C	0.03
A4G U9A U34A	0.67
A4G C15A U20C G21U A25G	0.12
A4U G22U U32C	0.05
A4U C13G G21C A39C	0.03
A4G C13U C18U G21U U28C C45A	0.39
A4G C23A A24U	0.69
A4G A12U G44A	0.03

Variant	self-cleavage
A4G A39G A41C	0.01
A4U G17A A25C	0.07
A4G A11C G17C G29U G33C	0.03
A4U A11U A12U	0.06
A4U A25G A26U G27A G36A C42G C46U	0
A4G C10A G17A C31G C37A	0.01
A4U G7A A11G G29U	0.03
A4G A11U A24G	0.02
A4U C13A C18A U28C G35A G36U G40A C42A	0.01
A4U G22A U28G	0.3
A4U G21U U34G G40U	0.01
A4U C10A A14C	0.01
A4U A6U G35C	0.03
A4G G19A A26G C45U	0.13
A4G G19A U28A A39C	0.07
A4U A6G U20G	0
A4G A25U C46U	1.52
A4G A25G G44C	0.01
A4U G7A A11C U32G	0.04
A4G A11U U20A	0.01
A4U G21C U43G C45U	0.02
A4U G5C A6C C8A G19A A26U G36C U43C	0.84
A4U A24C U34G	0.09
